Values joined by “and” are separate entries in the source; they are usually repeats but may differ in a detail not shown here. Equal entries are not always repeated. Hit rate of the full screen: of about 420,000 compounds, about 50,000 (12%) were called active. Inconclusive results, whose numbers are uncertain, are shown with a selection of clear calls. Calls come from the whole dose curve; as a rule, active = well fitted inhibition curve with a large enough effect; inconclusive = small, poorly fitted or top-dose-only effect; inactive = flat fitted curve, though single readings scatter. Potencies beside an inconclusive call are fits to weak or partial responses and may not hold up.
Assay: qHTS for Inhibitors of human tyrosyl-DNA phosphodiesterase 1 (TDP1): qHTS in cells in presence of CPT; note: nearly all actives have a fitted effect of over 55% in size
Conditions: chicken DT40 Tdp1-/-;hTDP1 cells + 20 nM CPT, ATP luminescence, 48 h; series mostly up to 46.2 µM
In short: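 Cell growth measured by CellTiter-Glo luminescence after a minimum 48 h, 37 C compound exposure with 20 nM CPT in Tdp1-knockout DT40 cells stably expressing hTDP1, seeded 400/well; qHTS titration format.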
Potency is the fitted concentration of half-maximal effect; tags give direction and shape of the fitted curve.

Q: With `O=S1(=O)CCOC[C@H](Cc2ccccc2)N1Cc1ccc(F)cc1` as the molecule, how does the Potency read?
A: Its Potency is inconclusive: 25.9 µM [inhibitor, single point].

Q: Which Potency does the source give for `CCCCNC(=O)c1c(O)c2cccc3c2n(c1=O)CCC3` here?
A: The Potency was “inactive”.

Q: With `O=C(/C=C\Nc1ccc2c(c1)OCO2)c1ccc2c(c1)OCO2` as the molecule, how does the Potency read?
A: The Potency was inconclusive: 29.1 µM [inhibitor, single point].

Q: With `CCCNC(=O)C1CCC(Cn2c(=O)c3sccc3n(CC(=O)NCc3ccccc3)c2=O)CC1` (stereo unspecified) as the molecule, how does the Potency read?
A: Its Potency is “inactive”.

Q: With `O=C(NCc1ccccc1F)C1CCCN(C(=O)N2CCOc3ccccc32)C1` (stereo unspecified) as the molecule, how does the Potency read?
A: The Potency was “inactive”.

Q: Which Potency does the source give for `COc1ccc(/C=C2\SC(c3ccc(C)cc3)=NC2=O)cc1OC` here?
A: The Potency was “inactive”.

Q: For `CC(C)C(=O)NC(=S)Nc1c(Cl)ccc2nsnc12`, which Potency is on record?
A: Its Potency is “inactive”.

Q: For `CC(C)C(c1nnnn1Cc1ccccc1)N(Cc1ccco1)Cc1cccs1` (stereo unspecified), which Potency is on record?
A: The Potency was inconclusive: 29.1 µM [inhibitor, single point].

Q: With `CN(CC(=O)Nc1cccc(F)c1)C(=O)c1csc2c1CCCC2` as the molecule, how does the Potency read?
A: The Potency was “inactive”.

Q: Which Potency does the source give for `O=C(CNCc1cccs1)Nc1ccc(S(=O)(=O)N2CCCCC2)cc1` here?
A: Its Potency is inconclusive: 8.2 µM [inhibitor, partial curve].

Q: For `CCOc1ccc(S(=O)(=O)N(CC(=O)Nc2ccc(OC)cc2OC)c2ccccc2)cc1`, which Potency is on record?
A: Its Potency is inconclusive: 11.6 µM [inhibitor, partial curve].

Q: For `COc1ccc(C(=O)Nc2nc3cc4c(cc3s2)OCCO4)c(OC)c1`, which Potency is on record?
A: The Potency was inconclusive: 10.3 µM [inhibitor, partial curve].

Q: With `Cc1ccc(S(=O)(=O)/C(C#N)=C/c2ccccc2OCc2ccccc2)cc1` as the molecule, how does the Potency read?
A: Its Potency is inconclusive: 29.1 µM [inhibitor, single point].

Q: With `COc1ccc(S(=O)(=O)N(CC(=O)N2CCc3ccccc3C2)c2ccc(C)cc2)cc1` as the molecule, how does the Potency read?
A: The Potency was inconclusive: 18.4 µM [inhibitor, single point].

Q: For `CCCCN(CC)CCNC(=O)c1cc2c(=O)n(C)c3ccccc3c2n1C`, which Potency is on record?
A: Its Potency is active: 18.4 µM.

Q: With `CCC(C)NS(=O)(=O)c1cc2c3c(c1)CCN3C(=O)CC2` (stereo unspecified) as the molecule, how does the Potency read?
A: The Potency was “inactive”.

Q: For `CCc1nnc(NC(=O)CCC(=O)N2CCN(Cc3ccc(OC)c(F)c3)CC2)s1`, which Potency is on record?
A: The Potency was inconclusive: 23.1 µM [inhibitor, partial curve].

Q: For `N#CCSc1nnc2ccc3ccccc3n12`, which Potency is on record?
A: The Potency was “inactive”.

Q: With `CN(C)c1ccc(C(=S)NC2CCCCC2)cc1` as the molecule, how does the Potency read?
A: The Potency was inconclusive: 29.1 µM [inhibitor, single point].

Q: With `OC(Cc1ccccc1)c1ncc(-c2ccc(Cl)cc2)[nH]1` (stereo unspecified) as the molecule, how does the Potency read?
A: Its Potency is inconclusive: 23.1 µM [inhibitor, single point].

Q: With `CC(C)(C)NC(=S)N/N=C/c1cc(Br)c(O)c(Br)c1` as the molecule, how does the Potency read?
A: The Potency was “inactive”.

Q: For `Cc1cccc2nc(Cn3c(=O)n(-c4ccc(Cl)cc4)c(=O)c4c5c(sc43)CCC5)cc(=O)n12`, which Potency is on record?
A: Its Potency is “inactive”.

Q: With `CNc1nc(-c2ccccc2)c2sccc2n1` as the molecule, how does the Potency read?
A: The Potency was inconclusive: 32.6 µM [inhibitor, single point].

Q: For `O=C(CSc1nnc(CN2CCOCC2)n1-c1ccc(Cl)cc1)Nc1cc(Cl)ccc1O`, which Potency is on record?
A: Its Potency is inconclusive: 29.1 µM [inhibitor, single point].

Q: With `Cc1nc2cc(-c3ccccc3)ccc2o1` as the molecule, how does the Potency read?
A: Its Potency is inconclusive: 29.1 µM [inhibitor, single point].

Q: With `COc1ccc(C)cc1N(C(=O)Cn1nnc(-c2ccc(C)o2)n1)C(C(=O)NC1CCCC1)c1ccncc1` (stereo unspecified) as the molecule, how does the Potency read?
A: Its Potency is “inactive”.

Q: Which Potency does the source give for `Cc1onc(-c2c(F)cccc2Cl)c1C(=O)Oc1ccccc1` here?
A: Its Potency is inconclusive: 13 µM [inhibitor, partial curve].

Q: With `CCOc1ccc(/C=C2\SC(=S)N(N3C(=O)C4CC4C3=O)C2=O)cc1` (stereo unspecified) as the molecule, how does the Potency read?
A: The Potency was “inactive”.

Q: Which Potency does the source give for `COc1ccc(OC)c(CNS(=O)(=O)c2ccc3c(c2)oc(=O)n3C)c1` here?
A: Its Potency is inconclusive: 16.4 µM [inhibitor, partial curve].

Q: For `Cc1ccc(C)c(C(=O)CSc2nc(N)cc(=O)[nH]2)c1`, which Potency is on record?
A: Its Potency is “inactive”.

Q: With `Cc1csc(NC(=O)CSc2ncc(-c3ccccc3)[nH]2)n1` as the molecule, how does the Potency read?
A: Its Potency is “inactive”.

Q: For `COc1ccc(Br)cc1CNC(=O)c1cc(=O)[nH]c2ccc(S(=O)(=O)N3CCCCC3C)cc12` (stereo unspecified), which Potency is on record?
A: The Potency was inconclusive: 18.4 µM [inhibitor, single point].

Q: Which Potency does the source give for `Cc1nnc(NC(=O)CCC(=O)N2CCN(CCOc3cccc4ccccc34)CC2)s1` here?
A: Its Potency is inconclusive: 29.1 µM [inhibitor, single point].

Q: For `CCn1cc(C(=O)NCCc2ccccc2)c(=O)c2cc(S(=O)(=O)N3CCCCCC3)ccc21`, which Potency is on record?
A: Its Potency is inconclusive: 20.6 µM [inhibitor, single point].

Q: With `O=C(NCc1ccccc1Cl)C(=O)NCC1CCCN1S(=O)(=O)c1cccs1` (stereo unspecified) as the molecule, how does the Potency read?
A: The Potency was “inactive”.

Q: Which Potency does the source give for `COc1ccc(N2C(=O)CS(=O)(=O)C23C(=O)N(Cc2ccccc2F)c2ccccc23)cc1Cl` (stereo unspecified) here?
A: Its Potency is inconclusive: 13 µM [inhibitor, partial curve, poor fit].

Q: For `Cc1cccc(Nc2nc3c(s2)CCCC3)c1`, which Potency is on record?
A: The Potency was active: 23.1 µM.

Q: Which Potency does the source give for `Cc1sc2nc(SCC(=O)N3CC(C)OC(C)C3)n(C)c(=O)c2c1C` (stereo unspecified) here?
A: The Potency was inconclusive: 23.1 µM [inhibitor, partial curve].

Q: For `C=C(C)Cn1c(SCC)nc2ccccc2c1=O`, which Potency is on record?
A: Its Potency is inconclusive: 22.4 µM [inhibitor, single point] and inconclusive: 16.4 µM [inhibitor, single point].

Q: For `Oc1oc(-c2ccccc2Br)nc1C=Nc1ccc(Br)cn1`, which Potency is on record?
A: Its Potency is inconclusive: 29.1 µM [inhibitor, single point].

Q: For `O=C1CC(=C2c3ccccc3-c3ccccc32)C(=O)N1CCN1CCN(c2ccccc2)CC1`, which Potency is on record?
A: The Potency was inconclusive: 13 µM [inhibitor, partial curve].

Q: With `N#CC(C#N)=C1C=C2C=C(N3CCCCCC3)CCC2CC1` (stereo unspecified) as the molecule, how does the Potency read?
A: The Potency was inconclusive: 25.9 µM [inhibitor, single point].

Q: With `CC(=O)N1c2ccc(S(=O)(=O)N3CCC(C(=O)Nc4cccc(Cl)c4C)CC3)cc2CC1C` (stereo unspecified) as the molecule, how does the Potency read?
A: The Potency was active: 14.6 µM.

Q: For `O=C(NCCCN1CCN(c2cccc(Cl)c2)CC1)c1nc(-c2ccncc2)no1`, which Potency is on record?
A: Its Potency is inconclusive: 25.9 µM [inhibitor, single point].

Q: Which Potency does the source give for `COc1ccc(-n2c(C)nc3c(cnn3-c3ccccc3)c2=O)cc1` here?
A: The Potency was active: 29.1 µM.

Q: With `Cc1ccc(OCC(=O)Nc2ccc(S(=O)(=O)N3CCOCC3)cc2)c([N+](=O)[O-])n1` as the molecule, how does the Potency read?
A: The Potency was “inactive”.

Reference: PubChem BioAssay AID686979 (National Center for Advancing Translational Sciences (NCATS), 2013)
